Laboratory results: the supplement of paper PMC4723716
± gives the uncertainty stated by the source. Over roughly 9,900 compounds, “viability index relative to DMSO control” has its median near 1; the lowest 2% begin near 0.85. Some of the results follow.

Tested on: Plasmodium falciparum NF54 stage V gametocytes
Assay: viability index relative to DMSO control (fraction); higher = less gametocyte killing
Settings: 2.5 µM, incubation time: 72 h
Outline: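 Compound at 2.5 µM was incubated for 72 hr at 37°C under low oxygen with P. falciparum NF54 stage V gametocytes (0.75% gametocytemia, 1.25% hematocrit, 10 µl, serum-free screening medium) in 1,536-well plates. Staining used 3 µl of 2.5 µM MitoTracker Red CMXRos plus 0.13% saponin for one to two hours, and red particles of 20–70 µm2 were counted in one imaged field per well. Each viability index is that count relative to the plate mean of solvent-only wells.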

[1] = library set: Broad Institute DOS

Row | SMILES | viability index [1] | viability index (library set: Broad Institute Blood Stage)
1 | COc1cccc(-c2ccc3c(c2)[C@H]2[C@H](CCN2S(=O)(=O)c2ccccc2F)[C@H](CO)N3)c1 | 0.941 ± 0.061 | –
2 | C[C@@H]1CN([C@@H](C)CO)C(=O)CCCn2nncc2CO[C@H]1CN(C)Cc1cccc(C(F)(F)F)c1 | 1.09 ± 0.031 | –
3 | O=C(Nc1cccc(F)c1)N1CCCCN2[C@@H](CO)[C@H](c3ccc(C#Cc4cccnc4)cc3)[C@@H]2C1 | 1.05 ± 0.075 | –
4 | O=C1C[C@H](c2ccccc2)C(=O)N[C@@H](c2ccccc2)C/C=C\C[C@H](c2ccccc2)N1 | 0.922 ± 0.035 | –
5 | O=C(C[C@@H]1CC[C@@H](NS(=O)(=O)c2ccccc2F)[C@H](CO)O1)NCCCN1CCOCC1 | 0.969 ± 0.062 | –
6 | COc1cccc(CN2C[C@]3(CN(C)C3)c3c([C@@H]2CO)n(C)c2cc(OC)ccc32)c1 | 1.01 ± 0.029 | –
7 | CN1C(=O)c2cc(NC(=O)Cc3cccs3)ccc2OC[C@H]2O[C@@H](CC(=O)NCCc3ccncc3)CC[C@@H]21 | 1.14 ± 0.052 | –
8 | CCC(=O)N1CC2(C1)[C@@H](c1ccc(-c3ccccc3C)cc1)[C@H](CO)N2C(=O)CC | 1.09 ± 0.12 | –
9 | CO[C@@H]1CN(C)C(=O)c2cc(NC(=O)NC3CCCCC3)ccc2OC[C@H](C)N(CC2CCOCC2)C[C@H]1C | 1.11 ± 0.066 | –
10 | COc1cccc(NC(=O)N2CC(=O)N3[C@H](CO)[C@@H](c4ccc(C#CCC5CCCC5)cc4)[C@H]3C2)c1 | 1.04 ± 0.1 | –
11 | CO[C@H]1CN(C)C(=O)c2cc(NS(C)(=O)=O)ccc2OC[C@H](C)N(Cc2cncnc2)C[C@@H]1C | 1.04 ± 0.023 | –
12 | O=C([C@@H]1[C@@H](CO)[C@@H]2Cn3c(ccc(C4=CCCCC4)c3=O)[C@H]1N2Cc1nccs1)N1CCCCC1 | 1.03 ± 0.083 | –
13 | O=C(C[C@H]1C[C@H]2c3cc(NC(=O)CC4CC4)ccc3O[C@H]2[C@@H](CO)O1)NCC1CC1 | 1.14 ± 0.028 | –
14 | CC(=O)N1CC2(C1)[C@H](c1ccccc1)[C@@H](CO)N2C(=O)c1cnccn1 | 1.09 ± 0.025 | –
15 | COc1ccc2c3c([nH]c2c1)[C@@H](CO)N(C[C@]31CN(CC2CC2)C1)C(=O)CN(C)C | 0.939 ± 0.018 | –
16 | O=C(Nc1ccc2c(c1)[C@@H]1C[C@@H](CC(=O)N3CCOCC3)O[C@@H](CO)[C@@H]1O2)Nc1ccccc1F | 1.07 ± 0.041 | –
17 | COc1ccc2c3c([C@@H](CO)N(C[C@]33CCN(Cc4ccccc4OC)CC3)C(C)=O)n(C)c2c1 | 0.916 ± 0.0097 | –
18 | CCC(=O)N1C[C@]2(CCN(Cc3ccc(Cl)cc3)CC2)c2c([C@@H]1CO)n(C)c1cc(OC)ccc21 | 0.96 ± 0.11 | –
19 | O=C(CN1CCOCC1)N[C@@H]1CC[C@H](CCn2cc(C3CC3)nn2)O[C@H]1CO | 1.15 ± 0.1 | –
20 | OC[C@@H]1[C@@H](c2ccc(-c3cccnc3)cc2)[C@@H]2CN(Cc3ccccn3)CCCCN12 | 0.737 ± 0.12 | –
21 | CCC(=O)N1CC2(C1)[C@H](c1ccc(-c3cccc(C)c3)cc1)[C@@H](CO)N2S(C)(=O)=O | 1.07 ± 0.017 | –
22 | C[C@H](CO)N1C[C@H](C)[C@H](CN(C)C(=O)Nc2ccc(C(F)(F)F)cc2)OCCCC[C@H](C)Oc2ccc(NS(=O)(=O)c3cn(C)cn3)cc2C1=O | 1.058 ± 0.0083 | –
23 | COc1ccccc1-c1ccccc1[C@H]1[C@@H](C#N)N(C(=O)C2CCOCC2)[C@H]1CO | 1.09 ± 0.085 | –
24 | C[C@H](CO)N1C[C@H](C)[C@H](CN(C)C(=O)Nc2ccc3c(c2)OCO3)Oc2c(NC(=O)c3nc4ccccc4s3)cccc2C1=O | 0.987 ± 0.021 | –

Row | SMILES | viability index [1] | viability index (library set: Broad Institute Blood Stage)
25 | CN(C)CC(=O)N[C@H]1CC[C@H](CCNC(=O)C2CCC2)O[C@H]1CO | 1.07 ± 0.13 | –
26 | CO[C@@H]1CN(C)C(=O)c2ccc(NC(=O)c3ccno3)cc2OC[C@H](C)N(S(C)(=O)=O)C[C@H]1C | 1.16 ± 0.033 | –
27 | CN1C(=O)c2cc(NC(=O)c3ccc(F)c(F)c3)ccc2OC[C@H]2O[C@@H](CC(=O)N3CCCCC3)CC[C@@H]21 | 1.02 ± 0.079 | –
28 | COc1ccc(C#Cc2ccc3c(c2)[C@H]2[C@H](CCN2Cc2nccs2)[C@@H](CO)N3)cc1 | 1.04 ± 0.087 | –
29 | C[C@@H]1CCCn2nncc2COCCNC1=O | 1.05 ± 0.0094 | –
30 | CS(=O)(=O)N1[C@H](C#N)[C@H](c2ccc(-c3ccccc3F)cc2)[C@H]1CO | 1.14 ± 0.048 | –
31 | CS(=O)(=O)Nc1ccc2c(c1)[C@@H]1C[C@H](CC(=O)NCCc3ccccc3)O[C@H](CO)[C@@H]1O2 | 0.977 ± 0.079 | –
32 | COc1ccc2c3c([nH]c2c1)[C@@H](CO)N(C[C@]31CCN(CC1)C(=O)c1ccccc1)C(=O)CC1CC1 | 1 ± 0.14 | –
33 | CN(C)CCCNC(=O)C[C@@H]1CC[C@H]2[C@@H](COC[C@@H](O)CN2Cc2cccc(C(F)(F)F)c2)O1 | 1.07 ± 0.11 | –
34 | CC(C)C#Cc1ccc([C@H]2[C@@H](C#N)N(C(=O)c3cccc(F)c3)[C@H]2CO)cc1 | 1.11 ± 0.027 | –
35 | C[C@H]1CN([C@@H](C)CO)C(=O)c2ccccc2-c2ccccc2CO[C@H]1CN(C)C(=O)[C@@H]1CCCN1C | 1.06 ± 0.022 | –
36 | CCC(=O)N[C@H]1CC[C@H](CC(=O)NCc2ccccc2F)O[C@H]1CO | 1.11 ± 0.091 | –
37 | CCCC(=O)Nc1ccc2c(c1)C(=O)N(C)[C@H]1CC[C@@H](CC(=O)NCc3cccc(F)c3)O[C@@H]1CO2 | 0.993 ± 0.055 | –
38 | CC(C)NC(=O)Nc1ccc2c(c1)C(=O)N([C@@H](C)CO)C[C@@H](C)[C@H](CN(C)C(=O)C1CCCCC1)OCCCC[C@@H](C)O2 | 1.126 ± 0.0012 | –
39 | OC[C@H]1[C@@H](c2ccc(C#CC3(O)CCCC3)cc2)[C@H]2CN(Cc3cncnc3)CCCCN21 | 1.01 ± 0.036 | –
40 | COc1ccccc1NC(=O)N1CC(=O)N2[C@H](CO)[C@@H](c3ccc(C#CC(C)C)cc3)[C@@H]2C1 | 1.08 ± 0.044 | –
41 | CC[C@H]1C/C=C\C[C@@H](c2ccc(OC)cc2OC)NC(=O)[C@H](C)CC(=O)N1 | 1.1 ± 0.076 | –
42 | C/C=C/c1ccccc1[C@H]1[C@H](C#N)N(C(C)=O)[C@H]1CO | 1.03 ± 0.12 | –
43 | N#C[C@@H]1[C@H](c2ccc(C3=CCCCC3)cc2)[C@@H](CO)N1C(=O)CN1CCOCC1 | 1.14 ± 0.016 | –
44 | COc1ccccc1NC(=O)N1C[C@@H]2N[C@H](C1)[C@@H]2c1ccc(/C=C/c2ccccc2)cc1 | 0.571 ± 0.027 | –
45 | COc1cccc(CN2[C@@H]3CNC[C@H]2[C@@H]3c2ccc(-c3ccc(C#N)cc3)cc2)c1 | 1.06 ± 0.054 | –
46 | COCC(=O)N1C[C@@]2(C1)CN([C@@H](CO)c1c2c2ccc(OC)cc2n1C)C(=O)NC1CCCC1 | 0.975 ± 0.15 | –
47 | C[C@H]1CN([C@@H](C)CO)C(=O)c2cc(C#Cc3ccccc3)cnc2O[C@H]1CN(C)C(=O)c1ccccc1 | 0.572 ± 0.14 | –
48 | CCNC(=O)[C@@H]1[C@@H](CO)[C@@H]2Cn3c(ccc(-c4ccncc4)c3=O)[C@@H]2N1Cc1cc(F)ccc1F | 1.06 ± 0.019 | –

Row | SMILES | viability index [1] | viability index (library set: Broad Institute Blood Stage)
49 | C[C@H]1CC(=O)NCC/C=C\C[C@H](c2cccc(Cl)c2)NC1=O | 1.06 ± 0.052 | –
50 | O=C(C[C@@H]1CC[C@H]2[C@@H](COC[C@H](O)CN2C(=O)c2ccccc2F)O1)NCc1ccc(Cl)c(Cl)c1 | 1.11 ± 0.095 | –
51 | CCCN1[C@H](C(=O)OC)[C@@H](CO)[C@@H]2Cn3c(ccc(-c4cccc(OC)c4)c3=O)[C@@H]21 | 0.99 ± 0.089 | –
52 | CN1CCN(C(=O)C[C@H]2C[C@H]3c4cc(NS(C)(=O)=O)ccc4O[C@H]3[C@H](CO)O2)CC1 | 1.02 ± 0.1 | –
53 | CC(=O)N1[C@H](CO)[C@@H](c2ccc(-c3ccccc3F)cc2)C12CN(CC1CCOCC1)C2 | 1.07 ± 0.13 | –
54 | N#C[C@H]1[C@@H](c2ccccc2-c2ccccc2F)[C@@H](CO)N1C(=O)Cc1ccccc1 | 1.17 ± 0.077 | –
55 | O=C(C[C@@H]1CC[C@@H]2NC[C@@H](O)COC[C@H]2O1)Nc1nccs1 | 1.09 ± 0.092 | –
56 | C[C@@H]1CN([C@@H](C)CO)C(=O)CCCn2nncc2CO[C@H]1CN(C)C(=O)c1ccc(N2CCN(C)CC2)cc1 | 1.01 ± 0.025 | –
57 | CO[C@@H]1CC[C@H]2CCN(C)C(=O)[C@@H](C)N(C)C(=O)c3cccc(C#N)c3OC[C@H]1O2 | 1.08 ± 0.077 | –
58 | CC(C)[C@H]1C(=O)N[C@H](c2cccc(Cl)c2)C/C=C/C[C@H](C)Oc2ccccc2C(=O)N1C.CC(C)[C@H]1C(=O)N[C@H](c2cccc(Cl)c2)C/C=C\C[C@H](C)Oc2ccccc2C(=O)N1C | 0.9865 ± 0.0032 | –
59 | CN1CCN(C(=O)C[C@@H]2C[C@@H]3c4cc(NS(C)(=O)=O)ccc4O[C@@H]3[C@H](CO)O2)CC1 | 1.084 ± 0.0097 | –
60 | COc1cccc(-c2ccccc2[C@H]2[C@@H](C#N)N(C(=O)Cc3ccccc3)[C@H]2CO)c1 | 1.07 ± 0.14 | –
61 | C[C@@H]1CN([C@@H](C)CO)C(=O)c2cc(NC(=O)C3CCCCC3)ccc2O[C@@H](C)CCCCO[C@H]1CN(C)C(=O)CCC(F)(F)F | 1.07 ± 0.071 | –
62 | O=C([C@H]1[C@H](CO)[C@H]2Cn3c(cccc3=O)[C@H]2N1Cc1cocn1)N1CCC(Cc2ccccc2)CC1 | 1.05 ± 0.021 | –
63 | COc1ccccc1-c1ccccc1[C@H]1[C@@H](CO)N(C(=O)CN(C)C)[C@H]1C#N | 1.14 ± 0.12 | –
64 | C[C@H](NC(=O)C[C@H]1CC[C@H]2[C@@H](COc3ccc(NC(=O)C4CCOCC4)cc3C(=O)N2C)O1)c1ccccc1 | 1.14 ± 0.073 | –
65 | CCc1cnc(N2[C@H](C#N)[C@H](c3ccccc3-c3ccccc3C)[C@H]2CO)s1 | 1.07 ± 0.055 | –
66 | CC(=O)N1CC2(C1)[C@H](c1ccccc1)[C@H](CO)N2C(=O)c1cnccn1 | 1.09 ± 0.023 | –
67 | CN1C(=O)c2cc(NC(=O)NCc3ccccc3)ccc2OC[C@H]2O[C@@H](CC(=O)NCC3CCCCC3)CC[C@@H]21 | 1.03 ± 0.015 | –
68 | O=C(Cc1ccncc1)Nc1ccc2c(c1)[C@@H]1C[C@@H](CC(=O)N3CCc4ccccc4C3)O[C@@H](CO)[C@@H]1O2 | 1.08 ± 0.043 | –
69 | CN1C(=O)c2cc(NC(=O)c3cnccn3)ccc2OC[C@@H]2O[C@@H](CC(=O)N[C@@H]3CCN(Cc4ccccc4)C3)CC[C@H]21 | 0.947 ± 0.15 | –
70 | O=C(c1ccc(F)cc1)N1CC(=O)N2[C@H](C1)[C@@H](c1ccc(-c3cccnc3)cc1)[C@@H]2CO | – | 0.733 ± 0.11
71 | CO[C@@H]1CC[C@H]2CCN(C)C(=O)CCCN(C)C(=O)c3cc(C#N)ccc3OC[C@@H]1O2 | 0.919 ± 0.02 | –
72 | CN(C)CC(=O)N1[C@@H](C#N)[C@H](c2ccc(C#CC3CCCCC3)cc2)[C@@H]1CO | 1.06 ± 0.021 | –
